# Measured values as given in the supplement of paper PMC7826260.
# The other results are listed elsewhere or left out. Viral Rep nickase domains cut single-stranded DNA in vitro at 3 µM enzyme and 37 °C for 1 h; the strands have 90 letters, of which the middle is given. Values are log2 of uncut reads against the no-enzyme pool; the lower, the more was cut; hits are not called. The scaling is to total reads, so uncut sequences can rise above 0 when many others are cut.
# Tests used:
# Test in all cases: uncleaved DNA left, log2 of reads against the no-enzyme library (log2 ratio); higher = less cleavage (more negative = more Rep cleavage of the k-mer); sequences stand for … in CTCGTCCG…ACCGGAGA
# [1] = test system: T1, Rep nickase domain of Muscovy duck circovirus
# T1 sequence (protein, residues 1-111, tag omitted): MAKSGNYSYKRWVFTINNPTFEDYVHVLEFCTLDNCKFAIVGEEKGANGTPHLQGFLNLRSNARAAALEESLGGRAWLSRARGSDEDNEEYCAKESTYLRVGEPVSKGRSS
# Method: (§1)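 A pool of 90-nt single-stranded DNAs with seven random bases just before the constant AC of the nick site (name = the seven bases) was cut by 3 µM recombinant His6-SUMO-tagged Rep nickase domain (300 nM DNA, 50 mM HEPES pH 8.0, 50 mM NaCl, 1 mM MnCl2, 1 h, 37 °C, three replicates). Uncut DNA was amplified and sequenced.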
# [2] = test system: T2, Rep nickase domain of banana bunchy top virus
# T2 sequence (protein, residues 1-94, tag omitted): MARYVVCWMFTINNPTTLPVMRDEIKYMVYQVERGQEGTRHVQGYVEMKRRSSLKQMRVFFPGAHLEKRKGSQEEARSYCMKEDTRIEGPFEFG
# Method: as §1
# [3] = test system: T3, Rep nickase domain of cabbage leaf curl virus
# T3 sequence (protein, residues 1-116, tag omitted): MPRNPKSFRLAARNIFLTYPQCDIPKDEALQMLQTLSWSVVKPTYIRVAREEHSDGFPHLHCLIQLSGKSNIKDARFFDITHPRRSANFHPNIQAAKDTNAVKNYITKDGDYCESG
# Method: as §1
# [4] = test system: T4, Rep nickase domain of chickpea chlorotic dwarf virus
# T4 sequence (protein, residues 1-124, tag omitted): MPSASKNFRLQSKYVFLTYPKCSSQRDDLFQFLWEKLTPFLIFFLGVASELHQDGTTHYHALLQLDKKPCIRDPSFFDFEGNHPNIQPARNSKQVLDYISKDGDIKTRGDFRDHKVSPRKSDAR
# Method: as §1
# [5] = test system: T5, Rep nickase domain of faba bean necrotic yellows virus
# T5 sequence (protein, residues 1-98, tag omitted): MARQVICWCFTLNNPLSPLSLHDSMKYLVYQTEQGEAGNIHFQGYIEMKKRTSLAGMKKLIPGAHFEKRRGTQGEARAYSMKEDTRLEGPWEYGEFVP
# Method: as §1
# [6] = test system: T6, Rep nickase domain of maize striate mosaic virus
# T6 sequence (protein, residues 1-117, tag omitted): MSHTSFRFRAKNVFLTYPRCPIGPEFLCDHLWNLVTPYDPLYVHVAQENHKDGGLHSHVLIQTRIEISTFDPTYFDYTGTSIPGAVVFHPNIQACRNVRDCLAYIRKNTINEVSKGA
# Method: as §1
# [7] = test system: T7, Rep nickase domain of porcine circovirus 2
# T7 sequence (protein, residues 2-116, tag omitted): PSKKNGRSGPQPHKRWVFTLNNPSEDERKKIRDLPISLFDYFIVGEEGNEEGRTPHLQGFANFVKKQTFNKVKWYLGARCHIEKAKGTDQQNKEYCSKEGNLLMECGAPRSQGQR
# Method: as §1
# [8] = test system: T8, Rep nickase domain of tomato golden mosaic virus
# T8 sequence (protein, residues 1-124, tag omitted): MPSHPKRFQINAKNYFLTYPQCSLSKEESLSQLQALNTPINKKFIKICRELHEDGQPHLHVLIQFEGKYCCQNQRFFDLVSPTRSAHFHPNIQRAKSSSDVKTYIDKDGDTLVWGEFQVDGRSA
# Method: as §1
# [9] = test system: T9, Rep nickase domain of tomato yellow leaf curl virus
# T9 sequence (protein, residues 1-136, tag omitted): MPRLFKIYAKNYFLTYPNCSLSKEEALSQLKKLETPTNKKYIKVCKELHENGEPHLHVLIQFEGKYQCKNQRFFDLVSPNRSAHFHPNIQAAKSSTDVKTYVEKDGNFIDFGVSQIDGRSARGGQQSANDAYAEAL
# Method: as §1
# [10] = test system: T10, Rep nickase domain of wheat dwarf virus
# T10 sequence (protein, residues 1-137, tag omitted): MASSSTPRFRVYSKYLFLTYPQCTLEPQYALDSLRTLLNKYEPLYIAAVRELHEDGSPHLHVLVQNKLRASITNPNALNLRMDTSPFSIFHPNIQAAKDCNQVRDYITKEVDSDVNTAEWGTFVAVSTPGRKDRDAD
# Method: as §1
Sequence,uncleaved DNA left (log2) [1],uncleaved DNA left (log2) [2],uncleaved DNA left (log2) [3],uncleaved DNA left (log2) [4],uncleaved DNA left (log2) [5],uncleaved DNA left (log2) [6],uncleaved DNA left (log2) [7],uncleaved DNA left (log2) [8],uncleaved DNA left (log2) [9],uncleaved DNA left (log2) [10]
TGAGTGT,-0.0767,-0.00175,0.0971,0.397,0.00762,0.741,0.0592,0.0784,-0.0384,-0.0509
GCTCCAA,-0.123,-0.103,0.0253,0.389,-0.144,0.28,-0.159,-0.22,-0.125,-0.119
AGCCCGA,-0.102,0.0158,0.459,1.06,0.055,0.707,0.0752,-0.0693,-0.119,0.0619
CGCCGGC,0.0225,0.0632,0.36,0.346,0.145,0.12,0.105,0.00667,0.025,0.00865
AAACGTA,0.0438,-0.00468,-0.219,-1.86,0.114,-0.625,-0.0118,0.0675,-0.0181,-0.0488
AACTGCG,-0.0542,0.00124,0.0641,1.33,0.0366,0.968,0.0825,0.023,-0.146,-0.105
TGGATTC,0.0278,-0.0287,0.312,0.849,-0.125,0.869,0.16,-0.136,0.126,0.127
CTAAGCA,0.039,0.000261,-0.472,-1.54,0.0207,-1.22,-0.0929,0.059,0.117,-0.0606
CATGGAT,0.0265,-0.056,0.147,1.51,-0.0949,1.78,0.112,-0.00267,-0.157,-0.126
AACCTAA,0.00727,-0.0354,-0.0713,-1.08,-0.0386,-0.601,-0.227,0.0826,0.0414,0.0871
GCGCAAG,0.0461,0.157,-0.14,0.26,0.143,-0.485,0.124,0.226,0.197,0.0667
GTGGTGG,-0.0474,-0.0894,0.272,0.677,-0.118,0.502,-0.000372,-0.0281,0.00457,-0.119
GCCCTCT,0.00155,0.146,0.151,-0.698,0.0406,0.157,-0.0208,0.0683,0.0683,0.0516
AGCCACC,0.00982,0.0224,0.164,0.295,-0.058,0.364,-0.571,-0.0713,-0.0187,0.00437
AGCCAGG,0.153,0.258,0.153,0.651,0.213,0.824,0.191,0.153,0.0621,0.159
TTACCAC,-0.041,-0.00114,-0.0502,-2.08,-0.0249,-0.374,-1.18,-0.0742,-0.0146,-0.0889
TAAAACT,-0.0984,-0.0956,-4.51,-3.9,0.0371,-3.13,-2.24,-3.59,0.0443,-3.77
TGGTAAC,0.101,0.0537,0.394,0.765,-0.208,1.75,0.106,0.128,0.062,0.112
TGCCCCA,-0.0429,-0.12,0.209,0.0111,-0.122,0.245,-0.236,-0.0336,0.039,0.0533
AATCCGT,-0.139,-0.147,-0.414,-1.13,-0.102,-1.23,-0.177,-0.0313,-0.0985,-0.168

Sequence,uncleaved DNA left (log2) [1],uncleaved DNA left (log2) [2],uncleaved DNA left (log2) [3],uncleaved DNA left (log2) [4],uncleaved DNA left (log2) [5],uncleaved DNA left (log2) [6],uncleaved DNA left (log2) [7],uncleaved DNA left (log2) [8],uncleaved DNA left (log2) [9],uncleaved DNA left (log2) [10]
AGGTCTC,-0.0749,0.0135,0.122,0.237,0.0124,0.558,-0.114,-0.0213,0.0734,-0.0176
GACGGGG,0.135,0.106,0.74,1.05,0.0566,1.71,0.196,0.0933,0.00537,0.14
TTGTAGT,-2.02,-0.352,-0.57,-1.13,-0.536,-1.17,-3.58,-0.18,-0.0507,-0.067
GCTAACG,-0.0233,-0.0647,-0.855,-0.413,-0.0978,-0.965,0.132,-0.0555,-0.0445,-0.0786
ACGGTAG,0.0967,0.00921,-0.807,-0.547,-0.0846,-1.11,0.197,-0.00764,0.129,-0.141
GGAAAAT,0.146,0.289,0.978,2.09,0.223,2.3,0.246,0.242,0.0884,0.296
CGCCCTC,-0.00295,0.0373,0.228,0.232,-0.0766,0.336,-0.245,-0.0707,-0.111,-0.0652
ATCATGG,0.0857,0.00297,-0.362,-0.262,0.00315,-1.09,0.149,0.107,-0.0224,-0.0412
TGTAACT,0.0883,0.161,0.162,-1.45,0.0628,1.06,-0.282,0.166,0.153,0.238
TTTTCTG,-0.0579,-0.211,-0.22,-0.279,0.00235,-0.348,-0.0775,-0.0928,-0.0672,-0.0402
CCAGCGC,0.104,-0.00452,-0.654,-0.355,0.0964,-0.827,0.217,0.0263,-0.0957,-0.127
ATCAAGC,0.0936,0.0867,-0.0338,-0.0617,0.0466,-0.846,0.166,0.103,0.00391,0.104
CGGTATT,-2.65,-1.88,-0.283,-1.39,-2.07,0.66,-3.04,-0.337,-0.0968,-0.37
ACTGCTA,-0.134,-0.16,-0.343,-0.357,-0.0101,-0.633,-0.109,-0.0512,0.0113,-0.107
TAGCATC,-0.0116,-0.0038,-0.117,-0.448,-0.0248,-0.434,-0.38,-0.163,0.019,0.0413
TCAGAAG,0.104,0.145,-0.592,-0.6,0.239,-0.912,0.266,0.0402,0.107,-0.0288
TTGCCTC,-0.205,-0.228,-0.265,-0.636,-0.0497,-0.831,-1.48,-0.152,-0.0189,-0.154
GACGGGA,0.0331,0.0762,0.491,0.954,0.0677,1.33,0.0572,0.155,0.0629,0.0398
GGGCCCG,-0.00443,0.00786,0.639,1.26,-0.0208,1.47,0.0932,-0.0689,-0.0894,0.067
CGGCGAG,0.0626,-0.116,-0.0433,0.329,-0.103,-0.282,0.0153,-0.027,-0.0227,0.0661

Sequence,uncleaved DNA left (log2) [1],uncleaved DNA left (log2) [2],uncleaved DNA left (log2) [3],uncleaved DNA left (log2) [4],uncleaved DNA left (log2) [5],uncleaved DNA left (log2) [6],uncleaved DNA left (log2) [7],uncleaved DNA left (log2) [8],uncleaved DNA left (log2) [9],uncleaved DNA left (log2) [10]
AGAACTC,0.073,0.000947,0.365,0.773,0.0282,0.898,0.178,0.0194,0.0215,0.229
AGTGTGG,0.0361,0.0428,-0.168,0.0722,-0.0423,-0.273,0.163,-0.0167,-0.0893,-0.0291
AATTGCC,-0.169,-0.147,-0.794,-0.11,-0.0629,-1.02,0.00036,-0.206,-0.0122,-0.136
TTAGTCT,0.017,0.00779,-0.0943,-2.26,-0.0121,-0.581,-0.0689,-0.00502,0.0365,-0.143
ATCTAAA,-0.022,0.017,-0.0289,-0.101,-0.074,-0.573,0.00847,0.0439,-0.0686,-0.0012
TTGCCTA,-0.084,-0.131,-0.323,-0.835,-0.0175,-0.862,-1.2,-0.0448,0.146,0.0673
ATTTTCG,0.0704,0.0698,-0.878,-0.185,0.0957,-1.03,0.102,-0.0757,-0.0041,-0.0927
CCTAGTG,0.0624,-0.0176,-0.635,-0.632,0.0901,-0.95,0.144,-0.035,0.0338,-0.123
TAGTACC,-2.91,-0.0591,-1.1,-2.01,-1.96,0.00449,-3.94,-0.347,0.0912,-1.31
TCTTCAG,-0.0625,-0.0681,-0.382,-0.753,0.0199,-1.11,0.108,0.0742,-0.0216,-0.0538
GTACCTG,0.0198,0.0323,0.119,0.442,0.0436,1.25,-0.0837,0.0392,-0.0338,0.0104
GACATGC,0.0599,-0.0902,-0.0557,0.638,0.044,-0.367,0.141,0.0102,0.00624,0.035
GAGTACG,-0.0232,-0.0453,-0.546,-0.367,0.0644,-0.785,-0.069,-0.169,-0.0367,-0.13
TAGGGCT,0.131,0.0749,0.234,-0.117,0.0123,0.905,-0.345,0.0807,-0.0177,-0.0796
TCAGGTT,-0.0138,-0.136,0.266,1.13,-0.0517,1.78,0.0647,0.0527,-0.222,-0.0238
TTGGGGT,0.0575,-0.0477,0.124,0.939,-0.111,1.26,0.172,-0.0674,-0.168,-0.0615
CACATCG,0.00495,-0.0846,-0.837,0.393,0.119,-0.581,0.0949,-0.159,0.118,-0.0536
GAGACAC,0.08,0.13,0.873,2.04,-0.0583,2.14,0.286,0.00303,0.0677,0.239
CTACTGG,0.0478,0.109,-0.0456,-0.0442,0.0117,-0.00147,0.174,0.0355,-0.0468,0.0882
ACAAGGC,-0.00663,0.0972,-0.3,-0.126,0.101,-0.882,0.272,0.0972,0.0813,0.0722
